Source: patent US20130195871A1 (AbbVie / Abbott, published 2013)

How the values were obtained:
[1] = molecular target: T1, Recombinant Human IGF1R (human, UniProt P08069 31-932); assay: SPR (Biacore), N-terminal VD;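 note: capture of antibodies or DVD-Ig proteins on an anti-mouse IgG chip surface, recombinant antigen injected at 10–200 nM in HBS-EP running buffer at 25 °C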
T1 construct: bought reagent

[2] = molecular target: T2, Recombinant Human MSP Receptor ECD-His tag (human, UniProt Q04912 25-957); assay: SPR (Biacore), N-terminal VD;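 note: capture of antibodies or DVD-Ig proteins on an anti-mouse IgG chip surface, recombinant antigen injected at 10–200 nM in HBS-EP running buffer at 25 °C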
T2 construct: extracellular domain; bought reagent; also called RON

[3] = molecular target: T3, EGFR on the cell surface (human, UniProt P00533); assay: flow cytometry on cells, 2 ug/mL, C-terminal VD;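 note: cells stained for 30 to 60 min on ice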
T3 construct: whole, on cells

B1: DVD2286 (bispecific antibody)
VH: EVQLVQSGAEVKKPGSSVKVSCKASGGTFSSYAISWVRQAPGQGLEWMGGIIPIFGTANYAQKFQGRVTITADKSTSTAYMELSSLRSEDTAVYYCARAPLRFLEWSTQDHYYYYYMDVWGKGTTVTVSSASTKGP[about 120 residues left out]
VL: SSELTQDPAVSVALGQTVRITCQGDSLRSYYATWYQQKPGQAPILVIYGENKRPSGIPDRFSGSSSGNTASLTITGAQAEDEADYYCKSRDGSGQHLVFGGGTKLTVLGQPKAAP[about 100 residues left out]
notes: DVD-Ig, outer AB075 / inner AB004
- Kd [1]: 11 nM
- koff [1]: 0.00025 s⁻¹
- kon [1]: 22000 M⁻¹ s⁻¹

B2: DVD2311 (bispecific antibody)
VH: QVQLQESGPGLVKPSEILSLTCTVSGGSISSHYWSWVRQPPGKGLEWIGYIYYSGSTNYNPSLKSRVTISVDTSKNQFSLNLSSVTAADTAVYYCARIPNYYDRSGYYPGYWYFDLWGRGTLVTVSSASTKGP[about 120 residues left out]
VL: QAVLTQPSSLSAPPGASASLTCTLRSGFNVDSYRISWYQQKPGSPPQYLLRYKSDSDKQQGSGVPSRFSGSKDASANAGILLISGLQSEDEADYYCMIWHSSAWVFGGGTKLTVLRQPKAAP[about 100 residues left out]
notes: DVD-Ig, outer AB034 / inner AB004
- Kd [2]: 23 nM

B3: DVD2301 (bispecific antibody)
VH: [about 120 residues left out]ASTKGPEVQLVESGGGLVQPGGSLRLSCAASGFSLTNYGVHWVRQAPGKGLEWLGVGWSGGNTDYNTPFTSRLTINKDNSKNTVYLQMNSLRAEDTAVYYCARALTWYDYEFAYWGQGTLVTVSS
VL: [about 100 residues left out]RTVAAPDILLTQSPGTLSLSPGERATLSCRASQSIYTNIHWYQQKPGQAPRLLIKYASESISGIPDRFSGSGSGTDFTLTISRLEPEDFAVYYCQQNLNWPTTFGQGTKLEIK
notes: DVD-Ig, outer AB004 / inner AB400
- GEO MEAN [3]: 210
